Here are results for 60 compounds from PubChem BioAssay AID686979 (National Center for Advancing Translational Sciences (NCATS), 2013).

Where “and” joins values, the source holds several entries; their conditions need not be identical. Equal values may be shown once. The whole screen tested about 420,000 compounds, of which about 50,000 (12%) were called active. Inconclusive results (about 26%) are left out. Calls come from the whole dose curve; as a rule, active = well fitted inhibition curve with a large enough effect; inconclusive = small, poorly fitted or top-dose-only effect; inactive = flat fitted curve, though single readings scatter. This is a selection; strong and weak results do not stand in their true shares. A structure can be active in one record and inactive in another.
% is set by controls: 0 for no effect and ±100 for the full control effect; potency is the fitted concentration of half-maximal effect.

The test can be described thus: qHTS for Inhibitors of human tyrosyl-DNA phosphodiesterase 1 (TDP1): qHTS in cells in presence of CPT. Note: nearly all actives have a fitted effect of over 55% in size. The following applies: chicken DT40 Tdp1-/-;hTDP1 cells + 20 nM CPT, ATP luminescence, 48 h; series mostly up to 46.2 µM; activity change, negative = growth inhibition: at the top concentration. From the text:
Human tyrosyl-DNA phosphodiesterase 1 (TDP1) is a novel repair gene, and we propose to use it as a new target for anticancer drug development. TDP1 is not an essential protein, but under treatment with topoisomerase I poison (camptothecin: CPT), TDP1 works as a critical factor for cell survival. To directly identify novel TDP1 inhibitors active in a cellular environment, we have knocked-out the Tdp1 gene in chicken DT40 cells (Tdp1-/-) and generated a complemented counterpart cells that contains a stable transfection of the human TDP1 gene (Tdp1-/-;hTDP1 cells). For the primary screen, Tdp1-/-;hTDP1 cells will be exposed to small molecules in the presence or absence of CPT, and their growth kinetics will be evaluated after 48 hours by measuring ATP activity. […] The hit compounds will then be evaluated in the presence or absence of CPT using Tdp1-/- cells. […] In tertiary assays, biochemical gel-based assays will be used to assess whether the hit compounds specifically target TDP1. To this end, we have screened this cell line against the MLSMR in two primary screens. In one screen we add CPT and in the other we screen in the absence of CPT; this AID represents the screen where CPT was present. NIH Chemical Genomics Center [NCGC] NIH Molecular Libraries Probe Centers Network [MLPCN] MLPCN Grant: MH095538 Assay Submitter (PI): Yves Pommier, NCI
DT40-hTDP1 cells with 20 nM Camptothecin (add 20 microL of 1 mM CPT stock in 1 L of cell culture medium) were dispensed at 400 cells/5microL/well in tissue culture treated 1536-well white wall/solid bottom assay plates (Greiner Bio-One North America, NC, U.S.A.) using a Multidrop Combi 8 channel dispenser (Thermo Fisher, Waltham, MA, USA). 23 nL compounds and controls were transferred using the pin tool (Kalypsys, San Diego, CA, USA) to the assay plates. The assay plates were then incubated at 37 masculineC for a minimum 48 hr. Three microL of Cell Titer Glo solution was added to the plates and incubated at RT in dark for 30 min. Luminescence was read using ViewLux (Perkin Elmer) with 1 sec exposure slow speed, high gain and 2x binning.
(qHTS replaces the single test concentration by a dilution series.)
Regarding `CC1=CC(C)CC(C)OC(=O)CC(c2ccc(O)cc2)NC(=O)C(Cc2c(Br)[nH]c3ccccc23)N(C)C(=O)C(C)NC(=O)C(C)C1` (stereo not given), the Potency was active: 0.0259 µM.

With `CCN(CC)CCOC(=O)C(O)(c1ccccc1)c1ccccc1`, the “activity change, negative = growth inhibition” value is inactive: -21.6%.

For the compound `CNC(=O)Oc1ccc2c(c1)[C@]1(C)CCN(C)[C@@H]1N2C`, the Potency entry was “inactive”.

Turning to `O=C(O)C(O)C(O)C(O)C(O)C(=O)O` (stereo not given) (tested in a mixture with another compound), the “activity change, negative = growth inhibition” value is inactive: 9.21%.

For the compound `CC[C@H]1C2CC3[C@@H]4N(C)c5ccccc5[C@]45C[C@@H](C2[C@H]5O)N3[C@@H]1O` (stereo not given in full), the “activity change, negative = growth inhibition” value was inactive: -1.7%.

As for `O=C1NC(=O)N(Cc2ccccc2)C(=O)/C1=C\c1ccco1`, the Potency is active: 20.6 µM.

On to `c1ccc(C2CC2)c(OCC2=NCCN2)c1`, for which the Potency entry was “inactive”.

In the case of `C[C@]12CCC3C(CC[C@]4(O)CC(O)CC[C@@]34C=O)[C@]1(O)CCC2C1=CC(=O)OC1` (stereo not given in full), the “activity change, negative = growth inhibition” value is inactive: 10.2%.

Turning to `Cc1ccc2c(Cl)cc(Cl)c(O)c2n1`, the “activity change, negative = growth inhibition” value was inactive: 5.36%.

As to `CN1C[C@H](C(=O)N[C@@]2(C)O[C@@]3(O)C4CCCN4C(=O)C(Cc4ccccc4)N3C2=O)C[C@H]2c3cccc4[nH]cc(c34)C[C@H]21` (stereo not given in full), the “activity change, negative = growth inhibition” value is inactive: 12.3%.

As to `CC(C)=CCN1CC[C@@]2(C)c3cc(O)ccc3CC1C2C` (stereo not given in full), the “activity change, negative = growth inhibition” value is inactive: -20.6%.

As to `CCC1C2CC3C4N(C)c5ccccc5C45CC(C2C5O)N3[C@@H]1O` (stereo not given in full), the “activity change, negative = growth inhibition” value is inactive: -13.7%.

Turning to `Cc1cccc(Cc2cnc(NC(=O)c3ccc4c(c3)CC(c3ccccc3)OC4=O)s2)c1` (stereo not given), the Potency was active: 25.9 µM.

Take `C[C@]12CCC3C(CC[C@H]4C[C@@H](O)CC[C@]34C)C1C[C@@H](O)[C@@H]2O` (stereo not given in full): the “activity change, negative = growth inhibition” value is inactive: -17.4%.

`CN1[C@@H](CC(=O)c2ccccc2)CCC[C@H]1C[C@H](O)c1ccccc1`: the Potency result is “inactive”.

For `CCOP(=S)(OCC)Oc1ccc2c(C)c(Cl)c(=O)oc2c1`, the “activity change, negative = growth inhibition” value was inactive: -21.4%.

With `CC(C)=CCN1CC[C@]2(C)c3cc(O)ccc3C[C@H]1[C@H]2C`, the “activity change, negative = growth inhibition” value is inactive: -13.7% [at 92.5 µM].

For `C=CCN1CC[C@@]2(C)c3cc(O)ccc3CC1[C@@H]2C`, the “activity change, negative = growth inhibition” value was inactive: -4.08%.

On to `O=c1[nH]c(=S)n(-c2cccc(Cl)c2)c(O)c1C=NCCN1CCNCC1`, for which the “activity change, negative = growth inhibition” value is inactive: 30.3%.

With `CC(C)NS(=O)(=O)c1ccc(OCC(=O)N2CCN(Cc3ccc4c(c3)OCO4)CC2)c(Cl)c1`, the Potency is active: 16.4 µM.

Take `CN(C)CCC=C1c2ccccc2CCc2ccccc21`: the “activity change, negative = growth inhibition” value was inactive: 12.4%.

For `CNC(=O)Oc1ccc2c(c1)[C@]1(C)CCN(C)C1N2C` (stereo not given in full), the “activity change, negative = growth inhibition” value was inactive: -25.5%.

As for `COc1cccc([C@@]2(O)CCCC[C@@H]2CN(C)C)c1`, the Potency result is “inactive”.

On to `CCc1ccccc1NC(=O)CNC1CCCCC1`, for which the “activity change, negative = growth inhibition” value is inactive: 8.35%.

`NC(N)=Nc1ccc2[nH]c3c(c2c1)C[C@@]1(O)[C@H]2Cc4ccc(O)c5c4[C@@]1(CCN2CC1CC1)[C@H]3O5`: the Potency is active: 2.31 µM.

Consider `C[N+]1(C)CCc2cc3c(cc2[C@H]1[C@@H]1OC(=O)c2c1ccc1c2OCO1)OCO3`, for which the “activity change, negative = growth inhibition” value is inactive: 11.3%.

As for `CC(C)(O)[C@@H]1[C@H]2OC(=O)[C@@H]1[C@]1(O)C[C@H]3O[C@]34C(=O)O[C@H]2[C@]14C`, the Potency result is “inactive”.

For the compound `CCc1ccc(Nc2nc3c(S(=O)(=O)c4ccc(C)cc4)nnn3c3ccsc23)cc1`, the Potency was active: 3.66 µM.

Regarding `CN1[C@H](CC(=O)c2ccccc2)CCC[C@H]1C[C@@H](O)c1ccccc1`, the “activity change, negative = growth inhibition” value is inactive: 13.4%.

Take `CCn1cc2nc(SCc3cccc(C(F)(F)F)c3)n(Cc3ccc(OC)cc3)c(=O)c2n1`: the Potency was active: 20.6 µM.

As for `COc1ccc(-c2cc(=NCCCCCC(=O)O)c3cc(C)ccc3o2)cc1`, the “activity change, negative = growth inhibition” value is inactive: -19.2%.

`CCOc1ccc(CN(CCCl)CCCl)cc1C(=O)OC`: the Potency is active: 4.11 µM.

In the case of `COc1ccccc1CN1CCN(C(=O)COc2cccc(C)c2)CC1`, the “activity change, negative = growth inhibition” value was inactive: 2.24%.

Consider `CC[C@@H](CO)NC(=O)[C@@H]1C=C2c3cccc4c3c(cn4C)C[C@H]2N(C)C1`, for which the Potency entry is “inactive”.

With `CCn1cc(C(=O)O)c(=O)c2cc(F)c(N3CCNCC3)cc21`, the “activity change, negative = growth inhibition” value was inactive: -26.8%.

As to `OCC(Cl)CCl` (stereo not given), the “activity change, negative = growth inhibition” value was inactive: -1.06%.

Consider `CC(=O)OCC(=O)C1CCC2C3CC=C4CC(O)CCC4(C)C3CCC12C` (stereo not given), for which the “activity change, negative = growth inhibition” value is inactive: -2.17%.

Regarding `O=C(O)c1ccccc1Nc1cccc(C(F)(F)F)c1`, the “activity change, negative = growth inhibition” value is inactive: -22.3%.

In the case of `C[C@]12CC[C@H]3[C@@H](CCC4=CC(=O)CC[C@@]43C)[C@@H]1CC[C@@H]2O`, the Potency result is “inactive”.

With `CC(C)(C)C(O)C(Oc1ccc(Cl)cc1)n1cncn1` (stereo not given), the “activity change, negative = growth inhibition” value was inactive: -9.71%.

As for `C[C@]12CCC3C(CC[C@H]4C[C@@H](O)CC[C@]34C)C1C[C@@H](O)[C@H]2O` (stereo not given in full), the “activity change, negative = growth inhibition” value was inactive: 10.8%.

Turning to `C[C@H](CCC(=O)O)[C@H]1CC[C@H]2[C@@H]3C(=O)C[C@@H]4CC(=O)CC[C@]4(C)[C@H]3CC(=O)[C@]12C`, the “activity change, negative = growth inhibition” value was inactive: 0.133%.

For the compound `CNC(=O)CSP(=S)(OC)OC`, the “activity change, negative = growth inhibition” value was inactive: 0.433%.

Regarding `ClC1C(Cl)C(Cl)C(Cl)C(Cl)C1Cl` (stereo not given), the Potency entry was “inactive”.

Consider `CC12CC3CC(C)(C1)CC(N)(C3)C2`, for which the Potency entry is “inactive”.

Take `CN1[C@H](CC(=O)c2ccccc2)CCC[C@H]1C[C@H](O)c1ccccc1`: the “activity change, negative = growth inhibition” value was inactive: -1.83%.

As to `O=C(COc1ccc2c3c(c(=O)oc2c1)CCC3)N1C[C@H]2C[C@@H](C1)c1cccc(=O)n1C2`, the “activity change, negative = growth inhibition” value was inactive: 33.8%.

As to `COc1cc(CNC(=O)CCCC/C=C/C(C)C)ccc1O`, the Potency was active: 29.9 µM and active: 11.2 µM.

With `CN1C[C@@H](CO)C=C2c3cccc4[nH]cc(c34)CC21` (stereo not given in full), the “activity change, negative = growth inhibition” value is inactive: 10.2%.

In the case of `CN1CCc2cc(O)cc3c2C1Cc1ccc(O)c(O)c1-3` (stereo not given), the Potency was active: 2.59 µM.

As to `c1ccc(-c2ccc(C(c3ccccc3)n3ccnc3)cc2)cc1` (stereo not given), the Potency is active: 10.3 µM.

As to `COc1ccc(CN2C(=O)NC(=O)/C(=C/c3cc(OC)c(OC)c(OC)c3)C2=O)cc1`, the “activity change, negative = growth inhibition” value is inactive: -15.6%.

Take `CC(=O)[C@@]1(O)CC[C@H]2[C@@H]3CCC4=CC(=O)CC[C@]4(C)[C@H]3CC[C@@]21C`: the “activity change, negative = growth inhibition” value is inactive: 9.24%.

Take `CN(C)C1C(=O)C(C(N)=O)=C(O)C2(O)C(=O)C3=C(O)c4c(O)cccc4C(C)(O)C3CC12` (stereo not given): the “activity change, negative = growth inhibition” value is inactive: -27%.

With `CC1=C[C@@H]2c3cccc4[nH]cc(c34)C[C@H]2N(C)C1`, the “activity change, negative = growth inhibition” value was inactive: -21.5%.

For the compound `CC(C)OC(=O)OCOP(=O)(CO[C@H](C)Cn1cnc2c(N)ncnc21)OCOC(=O)OC(C)C`, the “activity change, negative = growth inhibition” value is inactive: 12.5%.

On to `Cc1ccc(O)c(C(CCN(C(C)C)C(C)C)c2ccccc2)c1` (stereo not given), for which the “activity change, negative = growth inhibition” value is inactive: -10.1%.

Consider `CC(C)=CCN1CC[C@@]2(C)c3cc(O)ccc3C[C@@H]1C2C` (stereo not given in full), for which the “activity change, negative = growth inhibition” value is inactive: -20.3%.

`c1cc2c(cc1[C@H]1OC[C@@H]3[C@H]1CO[C@H]3c1ccc3c(c1)OCO3)OCO2`: the “activity change, negative = growth inhibition” value is inactive: -45.4%.

For `Cc1ccc(-c2nc3ccc(C)cn3c2CC(=O)N(C)C)cc1`, the “activity change, negative = growth inhibition” value was inactive: -12.8%.
